Results published in the supplement of paper PMC12217912.
The other results are listed elsewhere or left out. Sequences were assembled here from the parent chain. Inactive controls read about 0.05.

B1: TEV protease; numbered along this chain (parent)
chain: MGESLFKGPRDYNPISSSICHLTNESDGHTTSLYGIGFGPFIITNKHLFRRNNGTLVVQSLHGVFKVKDTTTLQQHLVDGRDMIIIRMPKDFPPFPQKLKFREPQREERICLVTTNFQTKSMSSMVSDTSCTFPSGDGIFWKHWIQTKDGQCGSPLVSTRDGFIVGIHSASNFTNTNNYFTSVPKNFMELLTNQEAQQWVSGWRLNADSVLWGGHKVFMVKPEEPFQPVKEATQL

Variants of: B1
Assay: raw area under fraction-flipped curve 0-4 h after induction (AUC4h, not background-subtracted), DNA-recorder readout of cleavage of the substrate (dimensionless); higher = more cleavage of the substrate by the protease variant
Settings: temperature: 34 °C; time window: 0-4 h after rhamnose induction
Protocol: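 In vivo DNA recorder in E. coli TOP10(DE3) ΔrhaA at 34 °C. Each TEVp single-site mutant (parent TEVp 0) is paired with a single-site variant of the 7-mer TEVs (canonical ENLYFQ|S). The substrate sits between flexible linkers in a Bxb1-sfGFP-TEVs-SsrA fusion, so cleavage stabilises Bxb1 and speeds flipping of a recombination array, read by NGS. The value is the raw area under the fraction-flipped curve over 0-4 h after rhamnose induction (AUC4h), with ≥20 reads per time point. It is not background-subtracted; inactive controls average about 0.047.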
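Note: Bxb1 expression induced with 0.2% (w/v) L-rhamnose at OD600 near 0.5, cultures sampled hourly, flipped fraction per protease–substrate barcode pair counted by paired-end Illumina sequencing.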

Variant	area with substrate ENLYFQA	area with substrate ENLYFQD	area with substrate ENLYFQM	area with substrate ENLYFQN	area with substrate ENLYFQP	area with substrate ENLYFQS	area with substrate ENLYFQY	area with substrate ENLYFQC	area with substrate ENLYFQE	area with substrate ENLYFQG	area with substrate ENLYFQH	area with substrate ENLYFQL	area with substrate ENLYFQR	area with substrate ENLYFQT	area with substrate ENLYFQF	area with substrate ENLYFQI	area with substrate ENLYFQK	area with substrate ENLYFQV	area with substrate ENLYFQW	area with substrate ENLYFQQ
W203Q	0.0704	0.0627	0.0588	0.0531	0.0566	0.068	0.0593													
P94H	0.0803	0.0781	0.0896			0.102	0.0906	0.107	0.0703	0.11	0.108	0.0617	0.0638	0.0792						
N177F	0.0802	0.0603		0.0634	0.064	0.0793	0.0304		0.0587	0.0671		0.0567	0.0574	0.0625	0.0658	0.0536	0.0621	0.0509	0.0539	
H62T	0.0875		0.0763	0.0703	0.0664	0.0919	0.0574	0.122		0.101	0.0695	0.063	0.0578	0.0671		0.0534	0.0646	0.038	0.0855	
T181W	0.0667	0.0369	0.0463	0.0528		0.0587		0.0508				0.0543	0.0675			0.0619	0.0702	0.05		
F6L	0.0614			0.0432		0.0673	0.0663	0.0772		0.0637	0.0696	0.0707	0.0593	0.0631		0.0471	0.0864			
Y34D	0.0718			0.0597		0.0729		0.0922					0.0621	0.057	0.0427	0.0506	0.0489			
L191W	0.0687			0.0714		0.0836		0.0967	0.0758			0.0487	0.067			0.0653			0.0694	0.0892
W203T	0.0568		0.0592			0.0671	0.0735	0.0595		0.0598	0.0238	0.0688	0.0606	0.0627		0.0556		0.0554		
R51Q	0.101		0.0878			0.113	0.0801	0.129		0.151		0.0643	0.0409		0.0945	0.0569		0.0603	0.0734	
T119N	0.13			0.11		0.117	0.0956	0.169		0.117	0.0909	0.0674		0.0705		0.0524	0.0559	0.0594	0.0602	
E231D	0.114		0.0967	0.0493	0.0518	0.108		0.115			0.101		0.0495	0.0704		0.0947	0.0603	0.0573	0.0624	
L99A	0.0934		0.0707	0.0646		0.0918		0.102		0.0814	0.0703	0.04	0.0634	0.0781		0.0468	0.0615		0.0621	
R109A	0.0881	0.0792				0.102				0.126			0.0445	0.0522	0.0584	0.056	0.0657	0.0558		
